The values that follow come from the supplement of paper PMC12217912.

B1: TEV protease; numbered along this chain (parent)
chain: MGESLFKGPRDYNPISSSICHLTNESDGHTTSLYGIGFGPFIITNKHLFRRNNGTLVVQSLHGVFKVKDTTTLQQHLVDGRDMIIIRMPKDFPPFPQKLKFREPQREERICLVTTNFQTKSMSSMVSDTSCTFPSGDGIFWKHWIQTKDGQCGSPLVSTRDGFIVGIHSASNFTNTNNYFTSVPKNFMELLTNQEAQQWVSGWRLNADSVLWGGHKVFMVKPEEPFQPVKEATQL

In the assay the parent is B1. Briefly: raw area under fraction-flipped curve 0-4 h after induction (AUC4h, not background-subtracted), DNA-recorder readout of cleavage of the substrate (dimensionless); higher = more cleavage of the substrate by the protease variant. The settings on record: temperature: 34 °C; time window: 0-4 h after rhamnose induction.

The list shows a part of the results. The full chains were built here from the parent and the listed change. Values near 0.05 are background.
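Further: Bxb1 expression induced with 0.2% (w/v) L-rhamnose at OD600 near 0.5, cultures sampled hourly, flipped fraction per protease–substrate barcode pair counted by paired-end Illumina sequencing.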

In the case of MGESLFKGPRDYNPISSSICHLTNESDGHTTSLYGIGFGPFIITNKHLFRRNNGTLVVQQLHGVFKVKDTTTLQQHLVDGRDMIIIRMPKDFPPFPQKLKFREPQREERICLVTTNFQTKSMSSMVSDTSCTFPSGDGIFWKHWIQTKDGQCGSPLVSTRDGFIVGIHSASNFTNTNNYFTSVPKNFMELLTNQEAQQWVSGWRLNADSVLWGGHKVFMVKPEEPFQPVKEATQL [S60Q], the “area with substrate ENLYFDS” value amounted to 0.0545, the “area with substrate ENLYFES” value was determined as 0.0714, the “area with substrate ENLYFFS” value amounted to 0.0837 and the “area with substrate ENLYFHS” value amounted to 0.062. The “area with substrate ENLYFIS” value was determined as 0.0487, the “area with substrate ENLYFLS” value stood at 0.027, the “area with substrate ENLYFMS” value worked out at 0.0591 and the “area with substrate ENLYFPS” value stood at 0.0518. The “area with substrate ENLYFTS” value turned out to be 0.0346, the “area with substrate ENLYFWS” value turned out to be 0.0319 and the “area with substrate ENLYFYS” value is 0.0493.
Regarding MGESLFKGPRDYNPISSSICHLTNESDGHTTSLYGIGFGPFIITNKHLFRRNNGTLVVQSLHGVFKVKDTTTLQQHLVDGRDMIIIRMPKDFPPFPQKLKFREPQREERICLVTTNFQTKSMSSMVSDTSCTFPSGDGIFWKHWIQTKDGQCGSPLVSTRDGFIVGIHSASNFTNTNNYFTSVPKNFMELLTNQEAQQWVSGWRLNADSVLWGGHKVFMVKPEEPFQPVLEATQL [K230L], the “area with substrate ENLYFCS” value turned out to be 0.0653, the “area with substrate ENLYFDS” value is 0.0791, the “area with substrate ENLYFFS” value was 0.0744 and the “area with substrate ENLYFIS” value is 0.0557. Further, the “area with substrate ENLYFKS” value was 0.0768, the “area with substrate ENLYFMS” value was found to be 0.0645, the “area with substrate ENLYFPS” value is 0.0564 and the “area with substrate ENLYFSS” value was 0.0689. Also, the “area with substrate ENLYFTS” value was found to be 0.0585, the “area with substrate ENLYFWS” value is 0.0549 and the “area with substrate ENLYFYS” value is 0.055.
As for MGESLFKGPRDYNPISSSICHLTNESDGHTTSLYGIGFGPFIITNKHLFRRNNGTLVVQSLHGVFKVKDTTTLQQHLVDGRDMIIIRMPKDFPPFPQKLKFREPQREERICLVTTNFQTKSMSSMVSDTSCTFPSGDGIFWKHWIQTKDGQCGSPVVSTRDGFIVGIHSASNFTNTNNYFTSVPKNFMELLTNQEAQQWVSGWRLNADSVLWGGHKVFMVKPEEPFQPVKEATQL [L156V], the “area with substrate ENLYFDS” value came out at 0.0573, the “area with substrate ENLYFES” value amounted to 0.0666, the “area with substrate ENLYFFS” value came to 0.0303 and the “area with substrate ENLYFGS” value turned out to be 0.0615. For the same variant, the “area with substrate ENLYFHS” value is 0.067, the “area with substrate ENLYFIS” value amounted to 0.0635, the “area with substrate ENLYFKS” value was 0.0562 and the “area with substrate ENLYFLS” value turned out to be 0.0584. In addition, the “area with substrate ENLYFMS” value was 0.0717, the “area with substrate ENLYFNS” value came to 0.0648, the “area with substrate ENLYFPS” value came to 0.0599 and the “area with substrate ENLYFRS” value is 0.062. The “area with substrate ENLYFSS” value stood at 0.0688, the “area with substrate ENLYFWS” value worked out at 0.0408 and the “area with substrate ENLYFYS” value was found to be 0.0509.
With MGESLFKGPRDYNPISSSICHLTNESDGHTTSLYGIGFGPFIITNKHLFRRNNGTLVVQSLHGVFKVKDTTTLQQHLVDGRDMIIIRMPKDFPPFPQKLKFREPQREERICLVTTNFQTKSMSSMVSDTSCTFPSGDGIEWKHWIQTKDGQCGSPLVSTRDGFIVGIHSASNFTNTNNYFTSVPKNFMELLTNQEAQQWVSGWRLNADSVLWGGHKVFMVKPEEPFQPVKEATQL [F140E], the “area with substrate ENLYFDS” value worked out at 0.069, the “area with substrate ENLYFES” value was determined as 0.0624, the “area with substrate ENLYFFS” value stood at 0.0688 and the “area with substrate ENLYFGS” value worked out at 0.0606. Moreover, the “area with substrate ENLYFHS” value was 0.0749, the “area with substrate ENLYFIS” value stood at 0.0564, the “area with substrate ENLYFKS” value amounted to 0.0636 and the “area with substrate ENLYFLS” value is 0.0607. Besides, the “area with substrate ENLYFMS” value turned out to be 0.0603, the “area with substrate ENLYFNS” value worked out at 0.0624, the “area with substrate ENLYFPS” value is 0.0615 and the “area with substrate ENLYFRS” value stood at 0.0504. Besides, the “area with substrate ENLYFTS” value is 0.0686, the “area with substrate ENLYFVS” value is 0.0691 and the “area with substrate ENLYFWS” value came out at 0.0579.
With MGESLFKGPRDYNPISSSICHLTNESDGHTTSLYGIGFGPFIITNKHLFRRNNGTLVVQSLHGVFKVKDTTTLQQHLVDGRDMIIIRMPKDFPPFPQKLKFREPQREERICLVTTNFQTKSMSSMVSDTSCTFPSGDGIFWKHWIQTKDGQCGSPLVSTRDGFIVGIHSASNFTNTNNYFTSVPKNFMELLTNQEAQQWVSGWRLNADSVLWGGHKVFMVKPEEPFQPVKEATHL [Q234H], the “area with substrate ENLYFCS” value was 0.0485, the “area with substrate ENLYFES” value worked out at 0.0595, the “area with substrate ENLYFFS” value was found to be 0.08 and the “area with substrate ENLYFKS” value stood at 0.0575. Moreover, the “area with substrate ENLYFMS” value amounted to 0.0696, the “area with substrate ENLYFNS” value stood at 0.0552, the “area with substrate ENLYFPS” value is 0.0574 and the “area with substrate ENLYFTS” value turned out to be 0.0593.
For the variant MGESLFKGPRDYNPISSSICHLTNESDGHTTSLYGIGFGPFIITNKHLFRRNNGTLVVQSLHGVFKVKDTTTLQQHLVDGRDMIIIRMPKDFPPFPQKLKFREPQREERICLVTTNFQTKSMSSMVSDTSCTFPSGDGIFWKHWIQTKDGQCGSPLVSTRDGFIVGIHSASNFTNTNNYFTSVPKNFMELLTNQEAQQWVSGWRLNADSVLWGGHKVFMVKPEEPFQPVKEATRL [Q234R], the “area with substrate ENLYFCS” value amounted to 0.0634, the “area with substrate ENLYFES” value came out at 0.0658, the “area with substrate ENLYFFS” value was 0.0625 and the “area with substrate ENLYFGS” value stood at 0.0454. The “area with substrate ENLYFIS” value turned out to be 0.0598, the “area with substrate ENLYFNS” value is 0.0642, the “area with substrate ENLYFPS” value came to 0.0556 and the “area with substrate ENLYFRS” value was 0.0593. The “area with substrate ENLYFSS” value came out at 0.0673, the “area with substrate ENLYFTS” value worked out at 0.0585, the “area with substrate ENLYFVS” value came to 0.0314 and the “area with substrate ENLYFYS” value came out at 0.0681.
Regarding MGESLFKGPRDYNPISSSICHLTNESDGHTTSLYGIGFGPFIITNKHLFRRNNGTLVVQSLHGVFKVKDTTTLQQHLVDGRDMIIIRMPKDFPPFPQKLKFREPQREERICLVTTNFQTKSMSSMVSDTSCTFPSGDGIFWKHWIQTKDGQCGSPLVSTRDGFIVGIHSASNFTNTNNTFTSVPKNFMELLTNQEAQQWVSGWRLNADSVLWGGHKVFMVKPEEPFQPVKEATQL [Y179T], the “area with substrate ENLYFDS” value came out at 0.0232, the “area with substrate ENLYFES” value came to 0.0582, the “area with substrate ENLYFFS” value came to 0.0685 and the “area with substrate ENLYFGS” value is 0.0483. Further, the “area with substrate ENLYFIS” value came out at 0.0598, the “area with substrate ENLYFLS” value turned out to be 0.0682, the “area with substrate ENLYFMS” value was 0.0493 and the “area with substrate ENLYFNS” value came to 0.0405. In addition, the “area with substrate ENLYFSS” value worked out at 0.0691, the “area with substrate ENLYFVS” value came to 0.07 and the “area with substrate ENLYFYS” value was determined as 0.0824.
Consider MGESLFKGPRDYNPISSSICHLTNESDGHTTSLYGIGFGPFIITNKHLFRRNNGTLVVQSLHGVFKVKDTTTLQQHLVDGRDMIIIRMPKDFPPFPQKLKFREPQREERICLVTTNFQHKSMSSMVSDTSCTFPSGDGIFWKHWIQTKDGQCGSPLVSTRDGFIVGIHSASNFTNTNNYFTSVPKNFMELLTNQEAQQWVSGWRLNADSVLWGGHKVFMVKPEEPFQPVKEATQL [T119H], for which the “area with substrate ENLYFDS” value was found to be 0.0634, the “area with substrate ENLYFMS” value is 0.0811, the “area with substrate ENLYFNS” value worked out at 0.0689 and the “area with substrate ENLYFPS” value was 0.0688. Further, the “area with substrate ENLYFRS” value was determined as 0.0555 and the “area with substrate ENLYFTS” value stood at 0.0549.
Regarding MGESLFKGPRDYNPISSSICHLTNESDGHTTSLYGIGFGPFIITNKHLFRRNNGTLVVQSLHGVFKVKDTTTLQQHLVDGRDMIIIRMPKDFPPFPQKLKFREPQREERICLVTTNFQTKSHSSMVSDTSCTFPSGDGIFWKHWIQTKDGQCGSPLVSTRDGFIVGIHSASNFTNTNNYFTSVPKNFMELLTNQEAQQWVSGWRLNADSVLWGGHKVFMVKPEEPFQPVKEATQL [M122H], the “area with substrate ENLYFDS” value turned out to be 0.0618, the “area with substrate ENLYFES” value was found to be 0.0794, the “area with substrate ENLYFFS” value amounted to 0.0592 and the “area with substrate ENLYFIS” value stood at 0.0571. The “area with substrate ENLYFNS” value stood at 0.0672, the “area with substrate ENLYFPS” value is 0.0514, the “area with substrate ENLYFRS” value worked out at 0.0612 and the “area with substrate ENLYFSS” value was 0.0485. The “area with substrate ENLYFTS” value worked out at 0.0586 and the “area with substrate ENLYFWS” value amounted to 0.0603.
On to MGESLFKGPRDYNPISSSICHLTNESDGHTTSLYGIGFGPFIITNKHLFRRNNGTLVVQSLHGVFKVKDTTTLQQHLVDGRDMIIIRMPKDFPPFPQKLKFREPQREERICLVTTNFQTKSMSSMVSDTSCTFPSGDGIFWKHWIQTKDGQCGSPLVSTRHGFIVGIHSASNFTNTNNYFTSVPKNFMELLTNQEAQQWVSGWRLNADSVLWGGHKVFMVKPEEPFQPVKEATQL [D161H], for which the “area with substrate ENLYFDS” value worked out at 0.0461, the “area with substrate ENLYFES” value was determined as 0.0613, the “area with substrate ENLYFGS” value amounted to 0.0621 and the “area with substrate ENLYFMS” value came to 0.0484. Further, the “area with substrate ENLYFNS” value came out at 0.06, the “area with substrate ENLYFPS” value turned out to be 0.0589, the “area with substrate ENLYFTS” value was 0.0454 and the “area with substrate ENLYFYS” value stood at 0.0338.
